# Laboratory results as given in ChEMBL document CHEMBL4888484, “Replenishing the malaria drug discovery pipeline: Screening and hit evaluation of the MMV Hit Generation Library 1 (HGL1) against asexual blood stage Plasmodium falciparum ,using a nano luciferase reporter read-out” (2022).
# Hit rate of the full screen: of about 150,000 compounds, about 540 (0.36%) showed an effect of 50% or more. The list shows a part of the results.
# Test system: Plasmodium falciparum
# Assay: Primary screen in NF54 nanoGlo assay, in single point, at 2uM, 72h; a lower Z score goes with more inhibition
# Assay type: functional, Erythrocyte
# Details: timepoint 72 hour
Structure (SMILES),% Inhibition [%],Z score
O=C(c1ccncc1)N1C[C@H]2CC[C@@H](C1)N(C(=O)Cc1cccnc1)C2,-19,1.71
CCCC(=O)OCc1ccnc(N(C)C)c1,-8,0.67
Cc1cccc2c1OCC[C@@H]2NC(=O)Cn1cccc(C)c1=O,-4,0.58
CC1CCN(C(=O)C[C@@H]2C=CCC2)CC1,-12,2.34
CCC(CC)n1nc(C)cc1NC(=O)c1cc(-c2cnn(C)c2C)on1,-4,0.52
O=C(NC1CCOCC1)NC(c1cccs1)c1cccs1,-5,0.87
CC[C@H]1CN(C(=O)N2CCC(C(=O)NCCCc3ccccc3)CC2)c2cc(C)ccc2O1,2,-0.48
C=CCO[C@H]1[C@H](NC(=O)COC)c2ccccc2C12CCN(Cc1c(C)nn(C(C)C)c1C)CC2,11,-1.44
CCOc1cc(CO)ccc1OCC(=O)NC(C)(C)C,-5,0.69
Cc1c(F)cccc1-n1nnc(C(=O)NC2CC2)c1C,9,-1.1
Cc1nn(C)cc1-c1cc(-c2nnc(Nc3ccn(Cc4ccccc4Cl)n3)s2)no1,37,-5.42
Cc1cc(NC(=O)N2C[C@@H]3CCC[C@]3(C(N)=O)C2)cn2ccnc12,-2,0.21
Cc1c(Cl)cccc1OCC(=O)NCCc1ccc[nH]1,-10,1.53
COc1cc(CN2CC[C@H](c3nccc(C(F)(F)F)n3)C2)sn1,9,-1.1
COC(=O)C1CCC(C(=O)N(C)C2CCCCCCC2)CC1 (configuration not stated),15,-1.35
N#CCNC(=O)CCOc1ccccc1Br,-3,0.33
CCOC(=O)CN(C(=O)c1c2ccccc2nn1C)C(C)(C)C,8,-0.83
CN(C)CCN(C)C(=O)N[C@@H]1COC(C)(C)O[C@@H]1c1ccccc1,-5,1.06
COc1ccnc(NCc2ccc(N3CCOCC3)cc2)n1,34,-4.65
Cc1nccn1-c1ccc(-c2cccc3cccnc23)nn1,-7,1.11
O=C1CCN(Cc2cc3cc4c(cc3nc2-c2ccc(Cl)cc2)OCO4)CCN1,2,-0.18
CNC(=O)c1sc(N2CCO[C@@H](C)C2)nc1C,-3,0.46

Structure (SMILES),% Inhibition [%],Z score
COc1cc(-c2nc3ccc(C(=O)NC[C@H]4CCCO4)cc3nc2-c2cc(OC)c(OC)c(OC)c2)cc(OC)c1OC,-9,1.04
Cc1ccc(O[C@H]2CCN(C(=O)Nc3ccc4c(c3)OCO4)C2)nc1,-12,2.33
Cc1cc(C)n(-c2ccc(CCNC(=O)NC3CCOCC3)cc2)n1,2,-0.35
C[C@H]1c2cccn2CCN1Cc1nnsc1Cl,-10,1.56
Cc1nc(C)c(C(=O)N2CCC[C@H]2c2ncc(C)n2Cc2ccncc2)s1,1,-0.15
CN(C)C1CN(c2nccnc2C#N)C1,4,-0.52
O=C(OCc1nc(-c2ccccc2)no1)c1cccnc1,28,-3.21
CC(=O)c1ccc(Oc2nc(C)nc(N3CCCCC3)c2N)cc1,8,-1.36
Cc1cccc(C2CCCCN2C(=O)NC(C)Cn2cncn2)c1C (configuration not stated),-5,0.64
CO[C@H]1C[C@H]2CN(C(=O)NCCc3ccccc3)CC(=O)N2C1,2,-0.3
O=C(C[C@H]1CCCCNC1=O)NCc1ccccc1O,3,-0.52
CC(C)Cn1ccnc1CCN1C(=O)c2ccccc2C1=O,0,-0.1
Cc1ccc(N[C@H]2CC3=C(CC2(C)C)C(C)(C)CCC3)cc1,-3,0.67
CCn1c(-c2cc(NC(=O)c3ccc(C)c(F)c3)[nH]n2)cc2ccc(OC)cc21,18,-2
CC(C)C[C@@H](C(=O)O)N(C)C(=O)c1ccc2c(c1)CC(C)O2 (some centres not stated),-6,1.07
O=C(NC1(c2ccccc2)COC1)c1cc(OCC(F)F)ccn1,4,-0.81
COc1ccc(NC(=O)c2c([O-])n(-c3ccc(OC)cc3)n[n+]2CCN2CCCCC2)cc1,-7,1.12
O=C(c1cscn1)N1CC[C@H]2C(=O)N(Cc3ccccc3)CC(=O)N2CC1,-7,0.91
NC(C(=O)NC1CC1c1ccccc1F)c1cccc(Cl)c1 (configuration not stated),-5,0.56
Cc1ccsc1C(=O)Nc1cc(S(=O)(=O)N2CCOCC2)ccc1N1CCOCC1,-1,0.14
C[C@H](NS(=O)(=O)c1ccc(F)cc1)c1nnc2n1CCCCC2,6,-0.9
Cc1cnccc1C(=O)NC1CCS(=O)(=O)CC1,2,-0.27

Structure (SMILES),% Inhibition [%],Z score
Cc1oc(CNC(=O)c2ccccc2F)nc1C(=O)N1CCCC1,-11,1.39
Oc1ccc(Br)cc1-c1nc2cnccn2c1NC1CCCCC1,32,-1.65
CN=C(NCc1ccccc1)NC1CC1,-7,0.97
COc1ccc(NC(=O)N2CCCC[C@H]2c2noc(COCC3CC3)n2)c(C)c1,-8,1.05
O=C(c1c[nH]c2ccccc2c1=O)N1CCS(=O)(=O)C[C@H]1C1CC1,-6,1.01
CCOc1cc(CC#N)cc(Br)c1OC(F)F,-16,3.12
COCC(=O)N[C@H]1CO[C@@H](CN2CCC(F)(F)C2)[C@@H]1O,-7,1.05
O=C(CN1CCn2nc(-c3ccccc3)cc2C1=O)N1CCOCC1,-3,0.46
COc1ccc(-c2n[nH]c(C(F)(F)F)n2)c(OC)n1,-11,1.45
Cc1nc[nH]c1C(=O)NCc1cccnc1N1CCCCCCC1,-17,1.68
Cn1c2c(cc(-c3ncnn3Cc3ccccc3)c1=O)CCCC2,2,-0.24
CC(C)S(=O)(=O)NC1CCCCCC1,-11,2.26
CN(Cc1ccsc1)C(=O)CN1CCc2cncnc2C1,2,-0.23
O=C(Nc1cc[nH]n1)[C@H](Cc1ccccc1)n1cnnn1,-11,1.46
COCCN(CCOC)c1cc(C)ncn1,-11,1.33
CC1(C)NC(=O)N(CCN2CCC[C@H](c3n[nH]c(C4CCCCC4)n3)C2)C1=O,14,-1.54
c1cnc(N2CCC[C@H](c3nc(-c4cc5ccccc5o4)no3)C2)nc1,-14,1.44
COc1cc(C)c(S(=O)(=O)N2CCc3cc4ccccc4nc32)cc1C,-10,1.11
CCn1c(=O)c2nscc2n(CC(=O)Nc2ccc(C)cc2)c1=O,2,-0.22
Cc1cccc(NC(=O)Cn2nnc(-c3ccc4c(c3)OCO4)n2)c1C,-1,0.13
CN(C)c1nc(CNc2nnc(C(F)(F)F)s2)cs1,3,-0.39
CC1CC(C)CN(S(=O)(=O)c2ccc(C(=O)Nc3nc4c(s3)CCCC4)cc2)C1 (configuration not stated),-13,2.3

Structure (SMILES),% Inhibition [%],Z score
Cn1cc([C@H]2OCC[C@@H]2CNC(=O)NCC2CCc3ccccc3CC2)cn1,-2,0.22
Cc1noc(C)c1Cn1cc2c3c(cccc31)[C@H](CC(C)C)N[C@H](C(=O)N1CCN(C)CC1)C2,-10,1.31
CC(C)c1nccc(N2CCCC[C@@H]2CC(=O)O)n1,-17,3.29
CC[C@H](C)Cc1nc(-c2ccc(Cn3cccn3)o2)n(CC(C)(C)O)n1,-11,1.62
COc1ccc(CC(=O)N2CCc3nc(N4CCC(C)CC4)nc(Oc4cccc(OC)c4)c3C2)cc1,-7,1.1
O=C(c1nnc(N2CCC(C3CCOC3)C2)n1CC1CCOC1)N1CCCC1 (configuration not stated),-7,1.28
Cc1ccc(C(=O)Nc2ccccc2OCC2CC2)c(=O)[nH]1,-3,0.51
CCOc1cc([C@H]2C(C(N)=O)=C(C)Nc3nc(C)nn32)ccc1OCc1ccccc1,-6,0.92
COc1cc(Cl)c(C)cc1NC(=O)C[C@H]1CCCCN(C)C1=O,-15,2.81
c1csc(-c2ncn(Cc3nnc4n3CCCCC4)n2)n1,2,-0.42
CN(C)c1nc(CCC2CCN(C(=O)c3cc(C4CC4)[nH]n3)CC2)no1,-8,1.31
CC(C)c1ccc(O)c(NC(=O)c2nc(-n3cnnc3)ccc2Br)c1,-4,0.52
O=C(Cn1ncn2nc3c(c2c1=O)CCCC3)Nc1ccccc1F,-7,0.89
Cc1nn(C)c(OCCC2CCCC2)c1C,-9,1.02
OCc1ccc(-c2nccn2[C@H]2COC[C@@H]2N2CCCCC2)o1,-22,3.1
NS(=O)(=O)c1ccc(CCNC(=O)c2nc(N3CCCCC3)ncc2Cl)cc1,-14,2.88
Cc1noc(C2CCN(C(=O)[C@@H]3Cc4cc(Cl)ccc4O3)CC2)n1,-1,0.08
Cc1ccccc1OCC(=O)N1Cc2cncnc2C1,-4,0.68
Cc1ccccc1CNC(=O)Cn1cc(-c2ccccc2)sc1=O,4,-0.84
COc1ccc(C)cc1-c1nn(CC(C)C)cc1C(=O)NC[C@H]1Cc2ccccc2O1,-14,2.25
